PubChem BioAssay (Tox21)
Values joined by “and” are separate entries in the source; they are usually repeats but may differ in a detail not shown here. Equal values may be shown once. Inconclusive means that the source gave no clear call. Such entries were picked first, then a sample of the others. Potencies beside an inconclusive call are fits to weak or partial responses and may not hold up. Active and inactive are the calls of the source. Unless noted, calls come from the whole dose curve.

What was measured:
[1] = molecular target: Thyrotropin receptor (Homo sapiens) (UniProt P16473); test: qHTS assay to identify small molecule antagonists of the thyroid stimulating hormone receptor (TSHR) signaling pathway (AID 1259385); conditions: TSHR-HEK293 cAMP HTRF, TSH-stimulated antagonist mode; activity change, negative = inhibition: at 92.4 µM (top of the series) unless noted; note: nearly all actives have a fitted effect of over 20% in size; for activity change, negative = inhibition: % is set by controls: 0 for no effect and ±100 for the full control effect
Sequence of UniProt P16473 (P16473 whole entry, looked up): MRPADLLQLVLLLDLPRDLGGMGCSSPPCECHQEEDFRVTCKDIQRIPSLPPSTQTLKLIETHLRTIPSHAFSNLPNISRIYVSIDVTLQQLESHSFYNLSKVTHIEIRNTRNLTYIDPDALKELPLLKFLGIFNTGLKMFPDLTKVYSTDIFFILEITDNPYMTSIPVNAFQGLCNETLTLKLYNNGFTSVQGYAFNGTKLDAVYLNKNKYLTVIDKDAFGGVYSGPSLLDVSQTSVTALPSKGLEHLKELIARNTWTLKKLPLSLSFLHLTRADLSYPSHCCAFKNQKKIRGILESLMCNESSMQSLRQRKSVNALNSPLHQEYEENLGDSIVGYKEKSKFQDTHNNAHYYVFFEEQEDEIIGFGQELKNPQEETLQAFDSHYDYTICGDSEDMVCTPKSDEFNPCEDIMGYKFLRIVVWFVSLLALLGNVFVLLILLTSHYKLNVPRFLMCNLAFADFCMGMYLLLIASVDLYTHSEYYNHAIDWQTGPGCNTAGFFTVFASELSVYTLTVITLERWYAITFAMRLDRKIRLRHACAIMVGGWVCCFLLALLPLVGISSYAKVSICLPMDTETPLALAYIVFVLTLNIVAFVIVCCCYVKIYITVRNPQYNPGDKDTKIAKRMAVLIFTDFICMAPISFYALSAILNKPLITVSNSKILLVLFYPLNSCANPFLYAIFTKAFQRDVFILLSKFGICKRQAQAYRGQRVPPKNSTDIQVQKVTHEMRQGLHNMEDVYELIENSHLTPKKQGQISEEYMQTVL
In short: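 TSHR-HEK293 cells (800/well) plated 18 h, then compounds with Ro20-1724 and TSH at 1.5 ng/mL final, 30 min at room temperature. cAMP quantified by HTRF (cAMP-d2/anti-cAMP-cryptate, 1 h); 15 concentrations in triplicate.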

[2] = molecular target: Progesterone receptor (Homo sapiens) (UniProt P06401); test: qHTS assay to identify small molecule antagonists of the progesterone receptor (PR) signaling pathway (AID 1346795; active = well fitted inhibition curve with a large enough effect in the signal ratio in the repeat runs, not every such curve was filed as active; inconclusive = weak or mixed curves; the % refers to the signal ratio; for activity change, negative = inhibition: % is set by controls: 0 for no effect and ±100 for the full control effect); conditions: PR-UAS-bla HEK293T, beta-lactamase FRET ratio, 16 h; activity change, negative = inhibition: at 92.4 µM (top of the series) unless noted
Sequence of UniProt P06401 (P06401 whole entry, looked up): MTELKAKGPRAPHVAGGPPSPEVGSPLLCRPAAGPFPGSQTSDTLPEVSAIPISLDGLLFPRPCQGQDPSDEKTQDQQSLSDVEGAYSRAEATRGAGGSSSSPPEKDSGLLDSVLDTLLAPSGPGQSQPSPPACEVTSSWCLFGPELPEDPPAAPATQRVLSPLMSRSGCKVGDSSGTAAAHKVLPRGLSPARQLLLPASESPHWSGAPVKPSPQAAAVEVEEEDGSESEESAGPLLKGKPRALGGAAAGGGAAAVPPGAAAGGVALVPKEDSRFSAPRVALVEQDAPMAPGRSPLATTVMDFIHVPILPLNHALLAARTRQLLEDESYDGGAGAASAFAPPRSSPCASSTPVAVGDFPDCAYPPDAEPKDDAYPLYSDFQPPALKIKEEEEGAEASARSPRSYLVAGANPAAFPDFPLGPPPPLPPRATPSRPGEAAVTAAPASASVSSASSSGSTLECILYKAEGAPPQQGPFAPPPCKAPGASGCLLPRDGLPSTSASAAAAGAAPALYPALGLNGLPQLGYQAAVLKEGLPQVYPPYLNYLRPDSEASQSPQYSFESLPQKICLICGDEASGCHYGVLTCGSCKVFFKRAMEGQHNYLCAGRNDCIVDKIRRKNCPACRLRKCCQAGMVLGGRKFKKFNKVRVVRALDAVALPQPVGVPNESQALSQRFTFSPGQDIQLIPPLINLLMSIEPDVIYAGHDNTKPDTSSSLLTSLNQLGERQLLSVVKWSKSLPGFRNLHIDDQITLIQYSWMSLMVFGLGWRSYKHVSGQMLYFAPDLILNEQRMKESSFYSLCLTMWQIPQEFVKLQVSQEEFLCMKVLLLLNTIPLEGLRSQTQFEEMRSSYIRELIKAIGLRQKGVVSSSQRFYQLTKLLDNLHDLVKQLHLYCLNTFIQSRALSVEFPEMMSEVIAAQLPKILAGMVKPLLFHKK
In short: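 Stimulus R5020 at 1 nM final; cells HEK293T PR-UAS-bla; medium with 2% charcoal-stripped FBS; compound exposure 16 hr at 37C, 5% CO2; detection by FRET beta-lactamase substrate, 2 hr, room temperature.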

[3] = qHTS assay to identify small molecule antagonists of the progesterone receptor (PR) signaling pathway - cell viability counter screen (AID 1346798; active = well fitted curve in the direction sought with a large enough effect in the repeat runs; inconclusive = weak or mixed curves; inactive = no such curve, though single readings can be large; an effect the other way counts as inactive or inconclusive; note: nearly all actives have a fitted effect of over 50% in size)
In short: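 In the same plates used for the beta-lactamase readout, cell viability of compound- and R5020-treated PR-UAS-bla HEK293T cells (16 hr, 37C) was assessed by CellTiter-Glo luminescence.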

[4] = qHTS assay to identify small molecule agonists of the progesterone receptor (PR) signaling pathway - cell viability counter screen (AID 1346799); note: nearly all actives have a fitted effect of over 45% in size
In short: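 Multiplexed viability read: CellTiter-Glo luminescence, 30 min RT, following LiveBLAzer FRET measurement on PR-UAS-bla HEK293T cells exposed to compounds 16 hr.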

[5] = qHTS assay to identify small molecule agonists of the TGF-beta/Smad signaling pathway - cell viability counter screen (AID 1346829; active = well fitted curve in the direction sought with a large enough effect in the repeat runs; inconclusive = weak or mixed curves; inactive = no such curve, though single readings can be large; an effect the other way counts as inactive or inconclusive; note: nearly all actives have a fitted effect of over 45% in size)
In short: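 In parallel with the Smad reporter read, viability of HEK 293T cells stably carrying SBE-bla is quantified by ATP luminescence following 5 hr compound treatment.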

[6] = qHTS assay to identify small molecule agonists of the TGF-beta/Smad signaling pathway (AID 1346859; active = well fitted activation curve with a large enough effect in the signal ratio in the repeat runs, not every such curve was filed as active; inconclusive = weak or mixed curves; the % refers to the signal ratio; for activation: % is set by controls: 0 for no effect and ±100 for the full control effect); conditions: SBE-bla HEK293T, TGF-beta/Smad beta-lactamase reporter, 5 h; activation: at 76.8 µM (top of the series) unless noted
In short: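 Screening used HEK 293T SBE-bla cells at 4,000/well. Test agents: 5 hr, 37 C. Detection: FRET substrate, 2 hr RT, then excitation 405 nm with emissions at 460 and 530 nm.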

[7] = qHTS assay to identify small molecule antagonists of the TGF-beta/Smad signaling pathway - cell viability counter screen (AID 1346824; active = well fitted curve in the direction sought with a large enough effect in the repeat runs; inconclusive = weak or mixed curves; inactive = no such curve, though single readings can be large; an effect the other way counts as inactive or inconclusive; note: nearly all actives have a fitted effect of over 50% in size)
In short: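 SBE-bla HEK 293T cells, incubated overnight, then compound plus 0.25 ng/mL TGF-beta1 (stock added) for 5 hr at 37 C. Viability was read in the same wells by CellTiter-Glo luminescence after 30 min at room temperature.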

[8] = qHTS assay to identify small molecule agonists of the estrogen receptor alpha (ER-alpha) signaling pathway in the presence of an antagonist - cell viability counter screen (AID 1259386; active = well fitted curve in the direction sought with a large enough effect in the repeat runs; inconclusive = weak or mixed curves; inactive = no such curve, though single readings can be large; an effect the other way counts as inactive or inconclusive;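 note: cells exposed to compounds for 22 h at 37 °C before the viability read; nearly all actives have a fitted effect of over 30% in size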)
In short: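 Using estrogen-depleted VM7Luc4E2 cells, the 15-concentration compound series was applied together with 10.0nM ICI-182,780 and incubated 22hr at 37C/5% CO2. Cell viability was then scored by CellTiter-Fluor.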

[9] = molecular target: Progesterone receptor (Homo sapiens) (UniProt P06401); test: qHTS assay to identify small molecule agonists of the progesterone receptor (PR) signaling pathway (AID 1346784); conditions: PR-UAS-bla HEK293T, beta-lactamase FRET ratio, 16 h; activation: at 92.4 µM (top of the series) unless noted; note: nearly all actives have a fitted effect of over 30% in size; for activation: % is set by controls: 0 for no effect and ±100 for the full control effect
In short: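 Reporter assay, GripTite PR-UAS-bla HEK 293T cells: 16 hr exposure to DMSO-dissolved compounds at 37C, 5% CO2, in steroid-depleted (2% charcoal-stripped FBS) medium; beta-lactamase measured by FRET fluorescence.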
Potency is the fitted concentration of half-maximal effect; tags give direction and shape of the fitted curve or compound fluorescence and quenching.

SMILES: O=C1NC2CCCCN2C12CCN(CCCN1c3ccccc3CCc3ccc(Cl)cc31)CC2 (stereo not drawn)
- Potency [1]: inconclusive: 33.5 µM [falling, partial curve, poor fit]
- Potency [2]: active: 26.6 µM
- Potency [3]: active: 26.6 µM
- Potency [4]: active: 23.7 µM
- Potency [5]: inconclusive: 26.8 µM [cytotoxic, single point]
- Potency [6]: inconclusive: 23.9 µM

SMILES: CC(=O)Oc1ccc(C(c2ccc(OC(C)=O)cc2)c2ccccn2)cc1
- Potency [1]: inconclusive: 21.6 µM [falling, partial curve, poor fit]
- Potency [2]: inconclusive: 60.8 µM [falling, single point]
- Potency [4]: inactive
- Potency [6]: inconclusive: 7.72 µM [rising, full curve] and inconclusive: 7.56 µM [rising, full curve]

SMILES: CC(=O)O[C@H]1CC[C@@]2(C)C(=CC[C@@H]3[C@@H]2CC[C@]2(C)C(C(C)=O)=CC[C@@H]32)C1
- activity change, negative = inhibition [1]: inconclusive: -12.3% [at 42.5 µM]
- activity change, negative = inhibition [2]: inconclusive: -44% [at 42.5 µM]
- Potency [6]: inconclusive: 4.25 µM [rising, partial curve, poor fit]

SMILES: Nc1nc(N)c2nc(CNc3ccc(C(=O)N[C@@H](CCC(=O)O)C(=O)O)cc3)cnc2n1
- Potency [1]: inactive
- activity change, negative = inhibition [2]: inconclusive: -27.5%
- Potency [7]: inconclusive: 57.5 µM [cytotoxic, single point]
- Potency [5]: inconclusive: 57.5 µM [cytotoxic, single point]
- activation [6]: inconclusive: 21.8%

SMILES: Cc1cc(N)c2cc(NC(=O)Nc3ccc4nc(C)cc(N)c4c3)ccc2n1
- Potency [1]: inconclusive: 33.5 µM
- activity change, negative = inhibition [2]: inconclusive: 15.2% [at 42.5 µM]
- Potency [3]: inconclusive: 33.5 µM [cytotoxic, single point]
- Potency [4]: inconclusive: 33.5 µM [cytotoxic, partial curve, poor fit]

SMILES: Cc1cc(C(=C2C=CC(=Nc3ccc(S(=O)(=O)O)cc3S(=O)(=O)O)C=C2)c2ccc(Nc3ccc(S(=O)(=O)O)cc3)cc2)ccc1N
- Potency [8]: inconclusive: 22.4 µM [cytotoxic, partial curve]

SMILES: CNc1ccc([N+](=O)[O-])cc1
- Potency [8]: active: 34.4 µM
- Potency [9]: inactive
- Potency [2]: active: 54.6 µM

SMILES: CCCCC(CC)COP(=O)(O)OCC(CC)CCCC (stereo not drawn)
- Potency [8]: inconclusive: 68.7 µM [cytotoxic, single point]
- Potency [9]: inconclusive: 68.7 µM and inconclusive: 54.5 µM [cytotoxic, partial curve]
- Potency [2]: inconclusive: 68.7 µM [falling, single point] and inconclusive: 68.6 µM [falling, single point]
- Potency [3]: inconclusive: 77.1 µM [cytotoxic, single point] and inconclusive: 68.6 µM [cytotoxic, single point]
- Potency [4]: inconclusive: 68.7 µM [cytotoxic] and inconclusive: 68.6 µM [cytotoxic, single point]

SMILES: C=CC(=O)OCCOCC(CC)(COCCOC(=O)C=C)COCCOC(=O)C=C
- Potency [8]: active: 35.8 µM
- Potency [9]: inconclusive: 71.4 µM [inhibitor, partial curve, poor fit]
- Potency [2]: active: 28.4 µM
- Potency [3]: active: 63.7 µM
- Potency [4]: active: 63.7 µM

SMILES: OCCN(CCO)c1nc(N2CCCCC2)c2nc(N(CCO)CCO)nc(N3CCCCC3)c2n1
- Potency [8]: inconclusive: 13.3 µM [rising, full curve]
- Potency [9]: inconclusive: 29.8 µM [fluorescent, partial curve]
- Potency [2]: inconclusive: 26.6 µM [rising, partial curve]
- Potency [3]: inconclusive: 11.9 µM [rising, full curve, poor fit]
- Potency [4]: inconclusive: 18.8 µM [rising, partial curve]
- Potency [6]: inconclusive: 16.9 µM [fluorescent, partial curve]

SMILES: N=C1C=CC(=C(c2ccc(N)cc2)c2ccc(N)cc2)C=C1
- Potency [1]: inconclusive: 27.3 µM [falling, partial curve]
- Potency [3]: inconclusive: 6.86 µM [rising, full curve]
- Potency [4]: inconclusive: 10.9 µM [rising, full curve]
- Potency [7]: inconclusive: 19.5 µM [cytotoxic, partial curve, poor fit]

SMILES: CC(C)=CCC[C@@](C)(O)[C@H]1CC=C(C)CC1
- Potency [1]: inactive
- Potency [3]: inconclusive: 2.66 µM [cytotoxic, single point]
- Potency [5]: inactive

SMILES: CCN(CC)c1ccc(C(=C2C=CC(=[N+](CC)CC)C=C2)c2ccc(S(=O)(=O)O)cc2S(=O)(=O)[O-])cc1
- Potency [1]: inconclusive: 2.43 µM [falling, full curve]
- Potency [3]: active: 30.6 µM
- Potency [4]: active: 24.3 µM
- Potency [7]: inconclusive: 19.5 µM [cytotoxic]
- Potency [5]: inconclusive: 21.9 µM [cytotoxic, full curve]

SMILES: CCC(C)(O)CCCC(C)C (stereo not drawn)
- Potency [1]: inconclusive: 77.2 µM [falling, partial curve, poor fit] and inconclusive: 24.3 µM [falling, partial curve, poor fit]
- Potency [4]: inactive

SMILES: C1CCCCC1
- Potency [1]: inactive
- Potency [4]: inactive
